Among the data in the supplement of paper PMC10126150 are switch fluorescence ratio values, retold here.

Values marked as one replicate rest on one cluster of the flow cell; about a third of the high ones do not repeat.

This data set deals with ATP. The experiment in a line: switch fluorescence ratio, 500 uM ATP over buffer (Cy3 cluster intensity, sum of 5 cycles each) (fold (ratio)); higher = stronger signal-on switching upon ATP binding; sequences stand for … in TCGTCGGCAGCGTCAGATGTGTATAAGAGACAGTTTTTTTTTTTTTTTTTTTTTTTTT…TC. To be noted: aptamer strand: ATP DNA aptamer (quencher-CACCTGGGGGAGTATTGCGGAGGAAGG + anchor), 100 nM annealed; ATP concentration: 500 uM; one replicate. In outline:
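After annealing to 100 nM quencher-labelled ATP aptamer, Cy3-labelled switching-strand clusters on a modified Illumina MiSeq flow-cell were imaged in selection buffer. A second image followed after 15 min with 500 uM ATP at 22 °C, and five such buffer/ATP cycles were done, each separated by NaOH stripping and re-annealing. The fluorescence ratio, averaged per switch-domain sequence, is summed target-cycle over summed buffer-cycle Cy3 intensity per cluster, with clusters outside 100-1000 RFU excluded.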
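Note: ATP exposure 15 min at 22 °C before imaging.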

As for AGTGCCTGCA, the switch fluorescence ratio is 1.

As for TCCAATGGTG, the switch fluorescence ratio is 1.26.

In the case of ATTTGTTGGC, the switch fluorescence ratio turned out to be 1.04.

As to AAGAAGTAAC, the switch fluorescence ratio came to 1.05.

For the sequence TTGGGAAGTC, the switch fluorescence ratio was 1.

For the sequence TTCTGAGACT, the switch fluorescence ratio turned out to be 1.02.

On to CCCTATGTTC, for which the switch fluorescence ratio stood at 0.992.

With TGGACCGAGT, the switch fluorescence ratio turned out to be 0.986.

On to ACTAGTTAAC, for which the switch fluorescence ratio turned out to be 0.961.

For GGAGATAGG, the switch fluorescence ratio is 0.992.

Take CTTCTTTCAT: the switch fluorescence ratio stood at 1.01.

As for CATAGCGGGG, the switch fluorescence ratio was 0.981.

With AGCGTGGACC, the switch fluorescence ratio was found to be 1.09.

Turning to TGCCCCCTTT, the switch fluorescence ratio worked out at 0.994.

Regarding TACTGGGACC, the switch fluorescence ratio worked out at 1.06.

With TGGAACCCCC, the switch fluorescence ratio worked out at 1.07.

TTATAGGCGA: the switch fluorescence ratio turned out to be 1.01.

Take AATGTAGCG: the switch fluorescence ratio is 1.05.

Take CCTGTGACGC: the switch fluorescence ratio worked out at 1.43.

Turning to AGTTGGCTC, the switch fluorescence ratio was 1.

On to TGAGGGGACC, for which the switch fluorescence ratio stood at 1.03.

For AGTGCAC, the switch fluorescence ratio was found to be 1.05.

For the sequence TTTGCGCATG, the switch fluorescence ratio was determined as 1.04.

With AGAGGCGGTC, the switch fluorescence ratio is 1.

For ATTTGATGTG, the switch fluorescence ratio worked out at 0.964.

In the case of GGCAGTATGG, the switch fluorescence ratio was 0.968.

In the case of TGCTCTTCAA, the switch fluorescence ratio is 1.12.

Consider TATTATGGAA, for which the switch fluorescence ratio was 1.05.

Consider TCGTGCGGCA, for which the switch fluorescence ratio worked out at 0.951.

Consider ACGCTTTAAG, for which the switch fluorescence ratio is 1.03.

With GTGAACTATG, the switch fluorescence ratio was 1.

Consider ATATAAATG, for which the switch fluorescence ratio worked out at 1.03.

For the sequence TCGAACTAAT, the switch fluorescence ratio was 1.02.

Turning to ACATTTTTGA, the switch fluorescence ratio came out at 1.02.

On to AAGTACAGGT, for which the switch fluorescence ratio is 1.24.

AGGGACTGCA: the switch fluorescence ratio stood at 1.08.

With CTACGTTGAT, the switch fluorescence ratio came to 1.13.

Regarding TTCGGAAACA, the switch fluorescence ratio was 1.

Take TTGCAGGCAC: the switch fluorescence ratio was determined as 1.02.

For AAGTGCAATG, the switch fluorescence ratio turned out to be 1.04.

In the case of GCGGCTTTGT, the switch fluorescence ratio is 0.982.

On to CCGAGTTAGT, for which the switch fluorescence ratio was determined as 1.16.

Take TCATAGTGGC: the switch fluorescence ratio was determined as 1.03.

Turning to CAAAAATAAA, the switch fluorescence ratio came to 0.974.

Take TTCTGCTTCT: the switch fluorescence ratio is 1.03.

TTGTCTGTCA: the switch fluorescence ratio was found to be 1.02.

As to GCAACTATGG, the switch fluorescence ratio amounted to 1.02.

Take CTGCAGTCAT: the switch fluorescence ratio is 1.17.

With CGTAACTACG, the switch fluorescence ratio is 1.04.

With GCGTATAGTA, the switch fluorescence ratio worked out at 1.02.

Consider AAATGTTACC, for which the switch fluorescence ratio was 1.05.

GAACCATGTG: the switch fluorescence ratio came out at 1.07.

For AACTCGACAA, the switch fluorescence ratio amounted to 1.16.

Consider AAAGGGTGC, for which the switch fluorescence ratio came out at 0.99.

Consider TCAAAGGGAA, for which the switch fluorescence ratio worked out at 0.978.

Take CCAGGGTATT: the switch fluorescence ratio was 1.01.

As for GCGTGTTGTA, the switch fluorescence ratio amounted to 1.05.

Turning to TTTAACCCGG, the switch fluorescence ratio came to 1.01.

As for TTGCTGGGAG, the switch fluorescence ratio came to 0.977.

As for CACTGAAATG, the switch fluorescence ratio turned out to be 1.01.

Regarding CGTCGTTACG, the switch fluorescence ratio came out at 0.992.

CAAAAAGATC: the switch fluorescence ratio was 1.01.

As to AGAAATGGGT, the switch fluorescence ratio was 0.985.

On to ATTATAATTG, for which the switch fluorescence ratio is 0.981.

AATCCTGGAC: the switch fluorescence ratio is 1.1.

For the sequence AAAGTGACCG, the switch fluorescence ratio amounted to 1.06.

Take TCAATCATGG: the switch fluorescence ratio amounted to 0.93.
